# Assay results from the supplement of paper PMC11417369.
# The other results are listed elsewhere or left out.
# Tested on: PfAP2-HC AP2 domain (GST-tagged)
# Experiment: gcPBM binding intensity (ln(normalized median fluorescence intensity)); higher = stronger DNA binding
# Summary of the method: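 After 1 h on an Agilent 4 × 180k array of primer-extended double-stranded 36-bp intergenic genomic probes and negative controls, bound GST-tagged P. falciparum DNA-binding domains were detected with Alexa488 anti-GST antibody and scanned at 488 nm. The domains had been expressed in E. coli, and binding took place in 1× PBS with 1% milk, 0.2 mg/ml BSA, 0.5% salmon testes DNA and 0.03% Triton X-100. Binding intensity is the highest Masliner-normalised natural-log median intensity across replicate spots of either probe orientation.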
row,Sequence,gcPBM binding intensity (ln)
1,TATATATATATATATTGTACTGAACGTTTTTTTTTG [XGTACX_site8060],9.92
2,TATATAATATATATATGTACATATATATATGTTTTT [XGTACX_site3347],9.62
3,TATACATAAAACAGTTCACACATTGTATGAATATAT [CACACA_site4751],9.87
4,TACAAACACCCATATACACACAAAAAAAAAATAAAA [CACACA_site5421],9.94
5,AGAAAAACTTATATGATACACACGATAAACAAAATA [CACACA_site1038],9.79
6,GGCAATACATAATAATGTACATAATTATATAATATT [XGTACX_site3739],9.61
7,TATATCTGTTTATATTGTACACATATATATATATAT [XGTACX_site714],9.92
8,GGACAACAAACAAACACACACAAAAAAAAAATAAAA [CACACA_site3791],11
9,AATTTTTCAAATTAATGTACTTGTTATAAATTGTAA [XGTACX_site5428],9.41
10,TTGTTTCTTTTTTTTTGTACATATATATTGTATATT [XGTACX_site7602],9.89
11,TACGTATTTTAATATTTACACACTTATTTTTTATAT [CACACA_site7924],9.93
12,AGGTAAAAATGGTAAGTGCATTAATGATAAAAAATG,10.1
13,GAATATTCACATACTTGTACATATATATATATATAT [XGTACX_site7302],9.84
14,TAATAATAGTACTGACATCGAAATATTATTAAAAAT [CACACA_negctrl_site255],9.6
15,TGGCAAAATAGGCACACACACATATACCTATAGATT [CACACA_site7168],10.3
16,GTAAATATATAAACATGTACATATATAAATATATAA [XGTACX_site7262],9.83
17,ATATTTTGGGGACTTTTTAAAAAAGAAGTATTAAAA [CACACA_negctrl_site1228],9.36
18,CAAAAAAAATAAAACACACACACAAAAAAATAAAAA [CACACA_site466],10.7
19,GTTTACATAGATAACTGTACGCAATGATATTAGACA [XGTACX_site1320],9.5
20,TATAAGAATAAAAAGGGTACATAAAATAATAATATA [XGTACX_site2355],9.74
21,GATAATTTTTTTCTCACACACAAATATTTTAATCAT [CACACA_site3666],9.97
22,AAATATATTATATCATATATTAAAGCATATATTAAA [CACACA_negctrl_site1624],9.49
23,TTCTTTTTATTTATATTTTCCCCTCTCTATAGCTAT [XGTACX_negctrl_site102],9.62

row,Sequence,gcPBM binding intensity (ln)
1,CAAAATAATAATAAAAGTACTAACATATTTATGAAA [XGTACX_site6078],9.8
2,ATAATTCAAAAAAACACACAAATTACAAAATAAACT [CACACA_site6264],9.92
3,ATATTTCTGTGTGGATGTACATTATTAGCAGGCTTT [XGTACX_site6496],9.65
4,AAAATATATACACAAACATGCATATAATAAATAAAT [TGCATGCA_site711],9.99
5,CATTATGTCGTAAATACACACATACCTATACATACA [CACACA_site6763],9.9
6,CCATAAGATATATGTAGTACATATTATATATATATA [XGTACX_site2104],9.65
7,TATACACATATATAAACACACAAAAAAAAAAAAAAA [CACACA_site7041],9.57
8,AATATATAGCTAAAAACACACAAATATATACGCATA [CACACA_site3608],9.84
9,GTTTACATTAAAAATTGTACTCTGTATGAATAATAT [XGTACX_site80],9.57
10,CTTAAAAAAACCTTAACACACATAAACTCTAATTTA [CACACA_site7430],9.68
11,ATTTCATTTTATAAGTGTACAATAAAAAAAAAAAAA [XGTACX_site8677],9.44
12,ATATAAACAGAAAATAGTACTTTATATTGAAAAAAA [XGTACX_site7183],9.69
13,GATGATACAAAGTAATGTACATAAATACACATATTG [XGTACX_site3177],9.8
14,AAATTTGATATAAAAAGTACAAAATGTTCCTCAGCT [XGTACX_site809],9.76
15,CTCTTCTATATATAAGCATGCATTCATAATAATTTA [TGCATGCA_site679],9.6
16,TAGATACTTGTCATGGGTACATATCGTACCTTTTGG [XGTACX_site6781],9.45
17,TTTATATGATATATTACACACAAAAAAAAAAAAAAA [CACACA_site3549],9.47
18,TCATTCATATGTTACACACACACACCCACATAAAAA [CACACA_site3245],11.2
19,CATAATTATGCAATTGCACACAACTATCATTTTTTT [CACACA_site2997],10.2
20,AAACCAAGGCACAATAATTAAATAAATAAAATCATG [GTGCAC_negctrl_site574],9.58
21,ATTTATATATATATAGGTACACATATTTATATATAA [XGTACX_site8487],9.56
22,ATATAATTTTTCAAGTGTACTTTTTTTTTTTAACAT [XGTACX_site3050],9.68
23,GATTATATATGAAAATGTACAAATATATATATATAT [XGTACX_site5963],9.58

row,Sequence,gcPBM binding intensity (ln)
1,AAAAAAAAAAAAAAAAAAAAAAAAAAATACATATGT [XGTACX_negctrl_site95],9.44
2,TTTTTGTATGCTTCCCGACTACATTATGCCATAAAT [CACACA_negctrl_site136],9.72
3,TATATATAAAAAACATGTACACAAATTTACATACAT [XGTACX_site4777],9.79
4,TCACTAAACCATTAGAGTACTTGACATATAATGAGC [XGTACX_site3272],9.45
5,AAGAGTTAAAAAAATACACACATATATATTTTTTTA [CACACA_site1980],9.86
6,ATATATCTATATGTGTGTACATATAAGTATTTATAT [XGTACX_site5333],9.87
7,ACATATAAACTGTATACACACAAATATTGCATATAT [CACACA_site6804],9.92
8,AGAAAAGAGAAATGGGCACACACACCCATATTATAT [CACACA_site8433],10.1
9,TACATTCTAAATATTACACACTTTATAAAATAATAA [CACACA_site4069],9.46
10,ATATATATAAATATATGTACTAATATATACATATAT [XGTACX_site2289],9.61
11,AAGGTGGGAAAAAATAGTACACAACAAAAATGTATG [XGTACX_site8741],9.74
12,AAAAAAATAAAAAATATATAAATAATTAATACATGT [GTGCAC_negctrl_site633],9.73
13,CACACAACTATCAAGGTGCTAAAATGAAATAATATA [GTGCAC_site9871],9.66
14,AATATAAATAAAAACACACACACACGGATATTTATA [CACACA_site7134],10.8
15,CCCATGTAATATTAAACACACACTCATATAACACAA [CACACA_site7906],10
16,ATATTATATCTAATCGTGCACAACTGTACATTTGTC,9.74
17,TTGTATCATATATTATGTACATATTTATTTATTATC [XGTACX_site7723],9.75
18,CAAAATATTTAAAAAAGTACTTAAAATAAATTCAAA [XGTACX_site6866],9.58
19,ATATTTAAATATATTTATATATATAAAAAAAAATAT [GTGCAC_negctrl_site312],9.62
20,AAAAAGAACACAAAAAGTACAAAAATTATAATGATA [XGTACX_site2676],9.92
21,AAACTTCAAAAAGAGCACTTGAATTTTTTTTTTTTT [TGCATGCA_negctrl_site133],9.37
22,AATATGTTTTACGTCTCACACATATAGGTTTATATT [CACACA_site4713],9.83
23,CATAAATACAAATATACACACATATTTATATTTATA [CACACA_site7277],9.78

row,Sequence,gcPBM binding intensity (ln)
1,ATTATACTTTCCATTCGTACATATATAAATAAATAA [XGTACX_site6245],9.48
2,ATATATAGATGTGAATTATTTATATTATCTATTCTT [CACACA_negctrl_site518],9.61
3,TATTTAAAATAATAACAAAATTAACATAAATATATA [GTGCAC_negctrl_site472],9.41
4,AACAATAAATTATTATGTACACATATATTATATATA [XGTACX_site4629],9.61
5,ATATTTTAAAATAATACACACAAAATGATTCTTAAT [CACACA_site2930],9.81
6,ATAAGTATTACTAGTACACACAAGTTGTTAATCCTT [CACACA_site3324],9.95
7,TATATTATATAATTTTAACACACAAGAATATAAACT [CACACA_site8378],9.76
8,ATTTATAAAATATAATTACATTTTTAAATAATAAAA [GTGCAC_negctrl_site43],9.18
9,TTACGATTTAAAATGGGTACATATATATGAAAAAAA [XGTACX_site545],9.32
10,CTTATGTGCATACCTACACACTTACCTATATTTATA [CACACA_site7411],9.94
11,ATATAATCTGAGTGCACACAAATAAATAAACATACA [CACACA_site422],10.4
12,TAAAAGGATGCATATACACACATATAGATTTATATA [CACACA_site7336],10.1
13,TTTTTTTTGTATTTTTCACACACACCGAAGTAAACA [CACACA_site8575],10.3
14,AGTTGCATACATTGAAGTACAGAACATTTATATATA [XGTACX_site240],9.67
15,TTTTTCCTTATTAATACACACATTCACCTTTTAAAT [CACACA_site479],9.91
16,GTATTTATGTGTTTGGTGCAAGGGAGAATTTTTTTT,9.87
17,TCAAAGTAAAACAGGACATGCACAGAACATCCTGCC [TGCATGCA_site2],9.67
18,AAAAAAAAAACATACACACACATATAGATTTATATG [CACACA_site6847],10.2
19,TAAAGAAAAATATAAAGTACAAAAATAAAAAAAATA [XGTACX_site8226],9.66
20,TACACAAAGTTACATACACACTAATATTTACACCAT [CACACA_site6602],10
